Drawing on ChEMBL document CHEMBL1157539, “Thousands of chemical starting points for antimalarial lead identification” (Nature, 2010), this text covers IFI for 25 compounds.

The full ranking holds about 13,000 compounds; the median of “IFI” is about 4, and the highest 2% start at about 17. The list shows a part of the results.

This experiment can be described thus: GSK_TCMDC: Inhibition Frequency Index (IFI). The number of non-kinase HTS assays where a compound showed > 50 % inhibition, expressed as a percentage of the number of such assays in which the compound was tested (-0 is zero). In kind it is functional.
In turn, `Cc1cc2nc(-c3ccc(C(=O)NC4CCN(Cc5ccccc5)CC4)s3)[nH]c2cc1C` yielded an IFI of 4.17%.

Turning to `COc1ccccc1-c1ccc(CNC(=O)C(CN2CCN(C)CC2)c2ccccc2)cc1` (stereo not given), the IFI was found to be 2.88%.

`CCc1cc(COc2ccc(CNCCC(C)C)cc2I)c(OCc2ccccc2)c(COc2ccc(CNCCC(C)C)cc2I)c1` had an IFI of 14.3%.

In the case of `CCOCc1cn(CC(=O)c2ccc(-c3ccccc3)cc2)c(C)nc1=N`, the IFI was found to be 4.17%.

`Cc1cc(OCCCN2CCC(NS(=O)(=O)c3ccc(C(F)(F)F)cc3)CC2)c2ccccc2n1` gave an IFI of 3.45%.

`CCCc1cc(Cc2cnc(N)nc2N)cc(CCC)c1O` came in with an IFI of 2.24%.

`O=C(Cc1cccc(Cl)c1)Nc1cccc(-c2c[nH]c3nc(Nc4cccc(O)c4)ncc23)c1` registered an IFI of 3.7%.

Compound `COc1cc(OCCCN(C)Cc2ccc(OC)c(OC)c2)ccc1NC(=O)c1cccc2c(O)c3cccc(F)c3nc12` returned an IFI of 5.26%.

On to `Cc1cccc2nc(-c3ccc(-c4cccc(CN5CCN(CCN6CCOCC6)CC5)c4)s3)[nH]c12`, for which the IFI was determined as 4.23%.

`O=C(C1CCCC1)N1CCOC(CCN2CCC(c3ccccc3)CC2)(c2ccc(Cl)c(Cl)c2)C1` (stereo not given): the IFI came to 9.93%.

As to `O=C(Nc1cccc(CN2CCCN(Cc3ccccc3)CC2)c1)c1ccc(Cl)c(Cl)c1`, the IFI is 3.97%.

Regarding `OCC1CCN(Cc2ccc(-c3ccc(-c4nc5cc(C(F)(F)F)ccc5[nH]4)cc3)cc2)CC1`, the IFI stood at 1.92%.

As to `CCN1CCC(N(Cc2ccc(-c3ccc(C(F)(F)F)cc3)cc2)C(=O)Cn2c(CCc3cccc(F)c3F)cc(=O)c3ccccc32)CC1`, the IFI amounted to 11.5%.

`Cc1nc(-c2cccc(Nc3nccc(NCC(O)c4ccccc4C(F)(F)F)n3)c2)cs1` (stereo not given): the IFI stood at 22.8%.

`COc1cc(NC(=O)Nc2cc(C)nc3ccccc23)cc(OC)c1` came in with an IFI of 1.4%.

For the compound `Cc1noc(C)c1S(=O)(=O)N(C)Cc1ccc(-c2ccc(Cl)cc2)o1`, the IFI was found to be 3.23%.

In the case of `Fc1c(CNCC2CCN(CC3CCCCC3)CC2)cccc1C(F)(F)F`, the IFI is 3.65%.

In turn, `Cc1cc(N[C@@H](CC(C)C)C(=O)NC2CCCC2)nc(NCCc2ccc(F)cc2)n1` showed an IFI of 6.82%.

Compound `COc1ccc2nccc(N3CCC(NCc4ccc5c(n4)NC(=O)CS5)CC3)c2n1` displayed an IFI of 0.72%.

`O=C(CCc1nc2c(cnn2-c2ccccc2)c(=O)[nH]1)NC1CCSc2ccccc21` (stereo not given) returned an IFI of 0%.

In turn, `CN(C)C(CNC(=O)c1cc(-c2ccncc2)c(-c2ccc(NC(=O)Nc3ccccc3)cc2)o1)c1ccccc1` (stereo not given) returned an IFI of 6.85%.

On to `O=c1c(Br)c(C(F)(F)F)[nH]c2ccc(Oc3ccccc3)cc12`, for which the IFI is 7.89%.

On to `Cc1nc(-c2nc(NCCc3cnccn3)ncc2-c2ccsc2)sc1C`, for which the IFI was 2.22%.

Consider `CCOc1ccc(C=CC(=O)Nc2ccc3nc(N4CCOCC4)cc(C)c3c2)cc1OC`, for which the IFI came to 4.04%.

Take `CCCCCC(C)C(C)c1cc(O)c2c(c1)OC(C)(C)CC2(O)c1ccccn1` (stereo not given): the IFI stood at 0.75%.
